According to a collection of fitness landscapes (doi:10.1126/science.1257360):
Some of the results follow.

B1: PhoQ; a variant is named by its letters at X, in order, P23837 (parent)
chain: MKKLLRLFFPLSLRVRFLLATAAVVLVLSLAYGMVALIGYSVSFDKTTFRLLRGESNLFYTLAKWENNKLHVELPENIDKQSPTMTLIYDENGQLLWAQRDVPWLMKMIQPDWLKSNGFHEIEADVNDTSLLLSGDHSIQQQLQEVREDDDDAEMTHSVAVNVYPATSRMPKLTIVVVDTIPVELKSSYMVWSWFIYVLSANLLLVIPLLWVAAWWSLRPIEALAKEVRELEEHNRELLNPATTRELTSLVRNLNRLLKSERERYDKYRTTLTDLTHSLKTPLXXLQXXLRSLRSEKMSVSDAEPVMLEQISRISQQIGYYLHRASMRGGTLLSRELHPVAPLLDNLTSALNKVYQRKGVNISLDISPEISFVGEQNDFVEVMGNVLDNACKYCLEFVEISARQTDEHLYIVVEDDGPGIPLSKREVIFDRGQRVDTLRPGQGVGLAVAREITEQYEGKIVAGESMLGGARMEVIFGRQHSAPKDE

Variants of: B1
Assay: enrichment ratio after two sorts for PhoP signalling (ratio (wild type AVST 3.29)); higher = more functional
Details: with PhoP (E. coli)
For MSRN, the enrichment ratio was ≤ 0.25.
In the case of KTGF, the enrichment ratio is reported as ≤ 0.25.
In the case of VKEE, the enrichment ratio is reported as ≤ 0.25.
For LYGQ, the enrichment ratio was ≤ 0.25.
NNHL was tested, and the enrichment ratio was ≤ 0.25.
For ISYK, the enrichment ratio was ≤ 0.25.
ANRL showed an enrichment ratio of 0.32.
NKYI was tested, and the enrichment ratio was ≤ 0.25.
For VNEK, the enrichment ratio was ≤ 0.25.
In the case of YYWR, the enrichment ratio is reported as ≤ 0.25.
SVMC was tested, and the enrichment ratio was 8.1.
KLIH was tested, and the enrichment ratio was ≤ 0.25.
For PCCI, the enrichment ratio was ≤ 0.25.
GGFD showed an enrichment ratio of 1.13.
In the case of SEKP, the enrichment ratio is reported as ≤ 0.25.
In the case of CFYI, the enrichment ratio is reported as ≤ 0.25.
GVCY was tested, and the enrichment ratio was 7.53.
For NFQG, the enrichment ratio was ≤ 0.25.
For LMDC, the enrichment ratio was ≤ 0.25.
For IRKD, the enrichment ratio was ≤ 0.25.
With NNVL the enrichment ratio was 1.25.
With SWSN the enrichment ratio was ≤ 0.25.
For KNVR, the enrichment ratio was ≤ 0.25.
RKTY was tested, and the enrichment ratio was ≤ 0.25.
In the case of NWGT, the enrichment ratio is reported as ≤ 0.25.
In the case of YSFH, the enrichment ratio is reported as ≤ 0.25.
In the case of MDQR, the enrichment ratio is reported as ≤ 0.25.
For LPHA, the enrichment ratio was ≤ 0.25.
For EYDT, the enrichment ratio was ≤ 0.25.
RERA was tested, and the enrichment ratio was ≤ 0.25.
For GLDM, the enrichment ratio was ≤ 0.25.
For PCMY, the enrichment ratio was ≤ 0.25.
In the case of TWQF, the enrichment ratio is reported as ≤ 0.25.
Work on GCLS yielded an enrichment ratio of 19.3.
For RSFI, the enrichment ratio was ≤ 0.25.
In the case of VDQE, the enrichment ratio is reported as ≤ 0.25.
YSEK was tested, and the enrichment ratio was ≤ 0.25.
SADH was tested, and the enrichment ratio was ≤ 0.25.
In the case of LMYL, the enrichment ratio is reported as ≤ 0.25.
In the case of WTYR, the enrichment ratio is reported as ≤ 0.25.
For ESPF, the enrichment ratio was ≤ 0.25.
With EAQK the enrichment ratio was ≤ 0.25.
With DPLW the enrichment ratio was 1.04.
IWHE was tested, and the enrichment ratio was ≤ 0.25.
In the case of ASSD, the enrichment ratio is reported as ≤ 0.25.
For IGYY, the enrichment ratio was ≤ 0.25.
In the case of YFNT, the enrichment ratio is reported as ≤ 0.25.
With INWP the enrichment ratio was ≤ 0.25.
DPLF was tested, and the enrichment ratio was ≤ 0.25.
For QNIS, the enrichment ratio was ≤ 0.25.
In the case of KYWT, the enrichment ratio is reported as ≤ 0.25.
In the case of FCRV, the enrichment ratio is reported as ≤ 0.25.
With VICK the enrichment ratio was ≤ 0.25.
With PAMK the enrichment ratio was ≤ 0.25.
For PVYF, the enrichment ratio was ≤ 0.25.
For MPHC, the enrichment ratio was ≤ 0.25.
With PHQN the enrichment ratio was ≤ 0.25.
ETHC was tested, and the enrichment ratio was ≤ 0.25.
With YYNT the enrichment ratio was ≤ 0.25.
With KQTK the enrichment ratio was ≤ 0.25.
In the case of RAGY, the enrichment ratio is reported as ≤ 0.25.
SCCR gave an enrichment ratio of 4.7.
In the case of SMSR, the enrichment ratio is reported as ≤ 0.25.
In the case of SAWD, the enrichment ratio is reported as ≤ 0.25.
PQAY was tested, and the enrichment ratio was ≤ 0.25.
For WALR, the enrichment ratio was ≤ 0.25.
For NNKN, the enrichment ratio was ≤ 0.25.
For NEWR, the enrichment ratio was ≤ 0.25.
MDKW was tested, and the enrichment ratio was ≤ 0.25.
HEMA was tested, and the enrichment ratio was ≤ 0.25.
FRMA was tested, and the enrichment ratio was ≤ 0.25.
In the case of QVIK, the enrichment ratio is reported as ≤ 0.25.
With MITP the enrichment ratio was ≤ 0.25.
In the case of SLPI, the enrichment ratio is reported as 10.
For QTWM, the enrichment ratio was ≤ 0.25.
IVVD was tested, and the enrichment ratio was ≤ 0.25.
In the case of YKRY, the enrichment ratio is reported as ≤ 0.25.
For TNID, the enrichment ratio was ≤ 0.25.
MRED was tested, and the enrichment ratio was ≤ 0.25.
FGKA was tested, and the enrichment ratio was ≤ 0.25.
For ESTP, the enrichment ratio was ≤ 0.25.
For NHQW, the enrichment ratio was ≤ 0.25.
With HFKL the enrichment ratio was ≤ 0.25.
For THFI, the enrichment ratio was ≤ 0.25.
NWID was tested, and the enrichment ratio was ≤ 0.25.
In the case of YDAN, the enrichment ratio is reported as ≤ 0.25.
For KYDR, the enrichment ratio was ≤ 0.25.
For YPRT, the enrichment ratio was ≤ 0.25.
With EMRY the enrichment ratio was ≤ 0.25.
With LFTF the enrichment ratio was ≤ 0.25.
In the case of HHTG, the enrichment ratio is reported as ≤ 0.25.
In the case of FCYM, the enrichment ratio is reported as ≤ 0.25.
AVYM was tested, and the enrichment ratio was 0.267.
With NPDA the enrichment ratio was ≤ 0.25.
For PMVD, the enrichment ratio was ≤ 0.25.
QTWN was tested, and the enrichment ratio was 16.8.
For TVYR, the enrichment ratio was 2.14.
In the case of QILH, the enrichment ratio is reported as ≤ 0.25.
In the case of VHRG, the enrichment ratio is reported as ≤ 0.25.
For LNAV, the enrichment ratio was ≤ 0.25.
For WFQM, the enrichment ratio was ≤ 0.25.
With NSIN the enrichment ratio was ≤ 0.25.
In the case of STFI, the enrichment ratio is reported as ≤ 0.25.
WPYG was tested, and the enrichment ratio was ≤ 0.25.
With FGEL the enrichment ratio was ≤ 0.25.
For NPLA, the enrichment ratio was ≤ 0.25.
For EGIG, the enrichment ratio was ≤ 0.25.
With LHKC the enrichment ratio was ≤ 0.25.
For SSND, the enrichment ratio was ≤ 0.25.
For YAKY, the enrichment ratio was ≤ 0.25.
For RMID, the enrichment ratio was ≤ 0.25.
RREY was tested, and the enrichment ratio was ≤ 0.25.
In the case of MNYF, the enrichment ratio is reported as 2.7.
In the case of VPHF, the enrichment ratio is reported as ≤ 0.25.
In the case of ILYI, the enrichment ratio is reported as ≤ 0.25.
HICA was tested, and the enrichment ratio was ≤ 0.25.
For ERRH, the enrichment ratio was ≤ 0.25.
MFIH was tested, and the enrichment ratio was ≤ 0.25.
In the case of EIES, the enrichment ratio is reported as ≤ 0.25.
MSTM showed an enrichment ratio of 5.94.
With IEAF the enrichment ratio was ≤ 0.25.
In the case of MWAD, the enrichment ratio is reported as ≤ 0.25.
With EMEV the enrichment ratio was ≤ 0.25.
VFSK was tested, and the enrichment ratio was ≤ 0.25.
With ITQM the enrichment ratio was ≤ 0.25.
For FLFK, the enrichment ratio was ≤ 0.25.
IPIS was tested, and the enrichment ratio was ≤ 0.25.
In the case of QGQL, the enrichment ratio is reported as ≤ 0.25.
With HWYI the enrichment ratio was ≤ 0.25.
With WYTL the enrichment ratio was ≤ 0.25.
LLVQ was tested, and the enrichment ratio was ≤ 0.25.
For VHWF, the enrichment ratio was ≤ 0.25.
With HLVS the enrichment ratio was ≤ 0.25.
TATG was tested, and the enrichment ratio was 18.
In the case of WSPN, the enrichment ratio is reported as ≤ 0.25.
In the case of HTGV, the enrichment ratio is reported as ≤ 0.25.
ARMY was tested, and the enrichment ratio was ≤ 0.25.
For LRPP, the enrichment ratio was ≤ 0.25.
In the case of FTLD, the enrichment ratio is reported as ≤ 0.25.
NWYP was tested, and the enrichment ratio was ≤ 0.25.
For MKRP, the enrichment ratio was ≤ 0.25.
With IDRP the enrichment ratio was ≤ 0.25.
In the case of QRKW, the enrichment ratio is reported as ≤ 0.25.
In the case of APRP, the enrichment ratio is reported as ≤ 0.25.
EYPL was tested, and the enrichment ratio was ≤ 0.25.
KCVP was tested, and the enrichment ratio was ≤ 0.25.
With ADFW the enrichment ratio was ≤ 0.25.
For ARTA, the enrichment ratio was ≤ 0.25.
In the case of SDLW, the enrichment ratio is reported as ≤ 0.25.
In the case of YMGF, the enrichment ratio is reported as ≤ 0.25.
LALM showed an enrichment ratio of 8.02.
In the case of TKHS, the enrichment ratio is reported as ≤ 0.25.
In the case of LWMN, the enrichment ratio is reported as ≤ 0.25.
With FKYS the enrichment ratio was ≤ 0.25.
With HMDY the enrichment ratio was ≤ 0.25.
In the case of QHGM, the enrichment ratio is reported as ≤ 0.25.
For DVWG, the enrichment ratio was ≤ 0.25.
In the case of PLSQ, the enrichment ratio is reported as ≤ 0.25.
VEQW was tested, and the enrichment ratio was ≤ 0.25.
PCWH was tested, and the enrichment ratio was ≤ 0.25.
In the case of AWCS, the enrichment ratio is reported as ≤ 0.25.
With KFCL the enrichment ratio was ≤ 0.25.
For FVRH, the enrichment ratio was ≤ 0.25.
In the case of FTPV, the enrichment ratio is reported as ≤ 0.25.
TYFW was tested, and the enrichment ratio was ≤ 0.25.
DMMH was tested, and the enrichment ratio was ≤ 0.25.
In the case of YGVW, the enrichment ratio is reported as ≤ 0.25.
In the case of VWHG, the enrichment ratio is reported as ≤ 0.25.
For SLHC, the enrichment ratio was ≤ 0.25.
HATT was tested, and the enrichment ratio was ≤ 0.25.
With KVPF the enrichment ratio was ≤ 0.25.
In the case of APVK, the enrichment ratio is reported as ≤ 0.25.
With RYED the enrichment ratio was ≤ 0.25.
Variant LTVP has an enrichment ratio of 0.369.
DWGG was tested, and the enrichment ratio was ≤ 0.25.
With IKIR the enrichment ratio was ≤ 0.25.
DNWL was tested, and the enrichment ratio was ≤ 0.25.
For MYHF, the enrichment ratio was ≤ 0.25.
With PQMM the enrichment ratio was ≤ 0.25.
With QKMV the enrichment ratio was ≤ 0.25.
In the case of LSRN, the enrichment ratio is reported as ≤ 0.25.
In the case of PHEY, the enrichment ratio is reported as ≤ 0.25.
KNQN was tested, and the enrichment ratio was ≤ 0.25.
HFSA was tested, and the enrichment ratio was ≤ 0.25.
TYMQ showed an enrichment ratio of 1.36.
With QDGQ the enrichment ratio was ≤ 0.25.
With DSHR the enrichment ratio was ≤ 0.25.
In the case of ICRY, the enrichment ratio is reported as ≤ 0.25.
YKDW was tested, and the enrichment ratio was ≤ 0.25.
RRCF was tested, and the enrichment ratio was ≤ 0.25.
With PIFY the enrichment ratio was ≤ 0.25.
With WVYL the enrichment ratio was ≤ 0.25.
In the case of LIWS, the enrichment ratio is reported as ≤ 0.25.
For HILY, the enrichment ratio was ≤ 0.25.
For IKSS, the enrichment ratio was ≤ 0.25.
